In all, about 43,000 compounds went through this assay and about 200 (0.47%) were called active. Another 12% or so got no clear call; they are omitted. Calls come from the whole dose curve; as a rule, active = well fitted cell-killing curve with a large enough effect; inconclusive = small, poorly fitted or top-dose-only effect, or effect the other way; inactive = flat fitted curve, though single readings scatter. The list shows a part of the results.
% is set by controls: 0 for no effect and ±100 for the full control effect.

The nature of this assay: Cell viability qHTS assay in S16 Pmp22-F2sN cells. Note: nearly all actives have a fitted effect of over 65% in size. The following applies: S16 Pmp22-F2sN Schwann cells viability, CellTiter-Glo, 24 h; series mostly up to 57.5 µM; activity change, negative = cytotoxicity: at the top concentration. An outline of the steps:
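Viability was measured by CellTiter-Glo luminescence (15 min, room temperature). This followed 24 h at 37 °C of compound exposure (23 nL pin transfer) in S16 Pmp22-F2sN Schwann cells, 500-1,000 per well.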
As to `CCOc1ccc(NC(=O)CCS(=O)(=O)c2ccc3nc(C)sc3c2)cc1`, the “activity change, negative = cytotoxicity” value is inactive: -1.15%. As for `COc1ccc(-n2c(SCC(=O)N3CCCc4ccccc43)nc3c([nH]c4ccccc43)c2=O)cc1`, the “activity change, negative = cytotoxicity” value is inactive: 3.4%. Under `COc1ccc(-c2cn3c(n2)sc2cc(C(=O)Nc4ccccc4F)ccc23)cc1` stands inactive: 16.9%; under `Cc1ccc(Cn2c(SCc3ccc(C(=O)NCCc4ccccc4)cc3)nc3ccncc32)cc1`, inactive: -26.2%. For `CCn1cc(S(=O)(=O)c2cccc(C)c2)c(=O)c2cc(F)c(N3CCCCC3C)cc21` (configuration not stated) the value was inactive: 3.98%; for `COc1cc(CN2CCN(S(=O)(=O)c3ccc(NC(C)=O)cc3)CC2)cc(OC)c1OC`, inactive: 1.74%; for `O=C1N(Cc2ccccc2Cl)c2ccccc2C1(O)c1c[nH]c2ccccc12` (configuration not stated), inactive: -23.4%. For `CC1=C(C(=O)OCC2CCCCC2)C(c2ccc(Cl)cc2)CC(=O)N1` (configuration not stated) the value was inactive: 15.3%; for `COc1ccccc1NC(=O)c1oc2ccccc2c1NC(=O)COc1cccc(C)c1`, inactive: 14.1%; for `COc1ccc(Cl)cc1NC(=O)N(C)CCc1c(C)nn(C)c1C`, inactive: -4.82%. Take `CCOC(=O)c1sc2ccccc2c1S(=O)(=O)Nc1ccc(C(C)=O)cc1`: the “activity change, negative = cytotoxicity” value is inactive: -1.37%. `CSc1ncc(C(=O)Nc2ccc(C)c(Cl)c2)c(-c2ccccc2)n1`: the “activity change, negative = cytotoxicity” value was inactive: -19.8%. For `CCc1ccc(N(CC)C(=O)Cn2nc(Cc3cccnc3)c3ccccc3c2=O)cc1` the value was inactive: 9.02%. For `CCOc1ccc(NC(=O)CSc2oc(-c3ccc(F)cc3)nc2S(=O)(=O)c2ccc(C)cc2)cc1` the value was inactive: 1.8%; for `COc1ccc(CNC(=O)Cn2ccc3cc(S(=O)(=O)N4CCCCC4)ccc32)cc1OC`, inactive: -2.06%; for `Cc1ccc(-n2c(=O)c3c4c(sc3n(Cc3cc(=O)n5ccccc5n3)c2=O)CCC4)cc1C`, inactive: -13%. Take `Cc1ccc(CN(Cc2ccco2)C(=O)c2oc3cc(Br)ccc3c2C)cc1`: the “activity change, negative = cytotoxicity” value is inactive: 1.99%.

Consider `O=C(Nc1ccc(Br)cc1F)c1cc(S(=O)(=O)NC2CCCCC2)ccc1F`, for which the “activity change, negative = cytotoxicity” value is inactive: -3.6%. For `Cc1nc2nc(NC(=O)c3ccc(C(C)(C)C)cc3)[nH]n2c(=O)c1Cc1ccccc1` the value was inactive: -2.14%. Under `COc1ccc(-n2c(=O)c3c(c4cc(OC)ccc4n3C)n(Cc3cccc(C)c3)c2=O)cc1` stands inactive: -7.29%; under `COc1ccc2c(c1)c(=O)c(S(=O)(=O)c1ccccc1)cn2CC(=O)Nc1ccc(C)c(Cl)c1`, inactive: 10.7%; under `COc1cccc(CNC(=O)Cn2nc(-c3ccc(Cl)cc3)ccc2=O)c1`, inactive: 20%. Regarding `CC1=C(C(=O)Nc2ccc(C)cc2C)C(c2cccs2)n2nc(SCc3cccc(C)c3)nc2N1` (configuration not stated), the “activity change, negative = cytotoxicity” value was inactive: 3.35%. Under `CNC(=O)CSc1cn(CC(=O)N2CCCCCC2)c2ccccc12` stands inactive: 0.177%.

With `CCC(C(=O)Nc1cccc(-c2nc3cccnc3s2)c1C)c1ccccc1` (configuration not stated), the “activity change, negative = cytotoxicity” value was inactive: 0.0119%. `COc1ccc(-n2cc(C(=O)NCCc3cc(OC)ccc3OC)c3ccccc3c2=O)cc1`: the “activity change, negative = cytotoxicity” value is inactive: 10.1%. Under `CCOC(=O)c1c(C)[nH]c(C)c1S(=O)(=O)N1CCCC(C(=O)NCc2ccc(N(C)C)cc2)C1` (configuration not stated) stands inactive: -28.3%.

Regarding `CC(C)CC(=O)Nc1nnc(S(=O)(=O)N(C)Cc2ccc(Cl)cc2)s1`, the “activity change, negative = cytotoxicity” value is inactive: 5.4%. Consider `CC(=O)Nc1nonc1-c1nnc(SCc2ccccc2F)n1C`, for which the “activity change, negative = cytotoxicity” value was inactive: -1.79%.

Take `CCc1ccccc1NS(=O)(=O)c1ccc2c(c1)CC(=O)N2`: the “activity change, negative = cytotoxicity” value was inactive: 0.327%.

On to `CCCc1nn2c(=O)cc(COC(=O)c3ccccc3NC(=O)COc3ccccc3)nc2s1`, for which the “activity change, negative = cytotoxicity” value was inactive: 8.76%. For `CCOC(=O)c1cc(S(=O)(=O)Nc2cc(F)ccc2C)[nH]n1` the value was inactive: -6.58%; for `COc1ccc(-c2cc(C(F)(F)F)n3nc(-c4ccccc4)cc3n2)cc1OC`, inactive: 0.592%; for `CCc1ccc(NC(=O)Cn2c(=O)n(CCC(C)C)c(=O)c3cccnc32)cc1`, inactive: 6.39%. For `CCCCSc1nnc2n(-c3ccc(OC)cc3)c(=O)c3c4c(sc3n12)COC(C(C)C)C4` (configuration not stated) the value was inactive: -20.4%; for `Cc1ccc(/C=C/c2onc(C)c2S(=O)(=O)N2CCC(C(=O)Nc3ccccc3C(F)(F)F)CC2)cc1`, inactive: 9.69%; for `CC(=O)c1ccc(N2CCN(c3ncnc4c3c(-c3ccccc3)cn4-c3ccc(Cl)cc3)CC2)cc1`, inactive: -1.7%. For the molecule `Cc1oc(-c2cccc(Cl)c2)nc1CS(=O)(=O)CC(=O)NC(C)CCc1ccccc1` (configuration not stated), the “activity change, negative = cytotoxicity” value was inactive: 3.54%. For the molecule `CCCCN(CC)C(=O)c1nn(C)c2c1CSc1ccccc1-2`, the “activity change, negative = cytotoxicity” value was inactive: -1.89%. With `CC(=O)c1cccc(NC(=O)CSc2nc(=O)n(Cc3ccco3)c3c2CCC3)c1`, the “activity change, negative = cytotoxicity” value was inactive: -6.28%. For `O=C(CSc1ccc(-c2cccs2)nn1)Nc1ccccc1C(F)(F)F` the value was inactive: -11.1%; for `Cc1ccccc1CNC(=O)C(C)N(c1ccccc1)S(C)(=O)=O` (configuration not stated), inactive: 4.67%; for `Cc1ccc(NC(=O)C2CCCN(C(=O)c3cnn(-c4ccc(F)cc4)c3-n3cccc3)C2)c(Cl)c1` (configuration not stated), inactive: -5.66%. Regarding `CC1(C)O[C@H]2[C@@H](O1)[C@@H](C(=O)Nc1ccccc1C(F)(F)F)O[C@@H]1OC(C)(C)O[C@@H]12`, the “activity change, negative = cytotoxicity” value was inactive: 27.2%. As for `O=C(CCC1N=C2c3ccccc3N=C(SCc3ccc(F)cc3)N2C1=O)NCCc1ccccc1` (configuration not stated), the “activity change, negative = cytotoxicity” value was inactive: 2.6%. Consider `CCOC(=O)N1CCN(C(=O)CN(c2ccccc2F)S(=O)(=O)c2ccc(C)cc2)CC1`, for which the “activity change, negative = cytotoxicity” value is inactive: 18.1%.

For the molecule `Cc1cc(N2CCC(C)CC2)nc2ccc(NC(=O)Cc3c(F)cccc3Cl)cc12`, the “activity change, negative = cytotoxicity” value is inactive: 26%. For `Cc1ccc(Cn2cc(S(=O)(=O)c3cccc(Cl)c3)c(=O)c3cc(F)c(N4CCCCC4)cc32)cc1` the value was inactive: 8.15%; for `CCc1ccc(NC(=O)CN(c2ccc(Cl)cc2)S(=O)(=O)c2ccsc2C(=O)OC)cc1`, inactive: -25%. For `CCOc1ccc(NC(=O)c2c(NCc3cccc(OC)c3OC)sc3c2CCC3)cc1` the value was inactive: 11.7%. Under `Nc1c(C(=O)Nc2ccccc2Cl)c2ccccn2c1C(=O)c1ccccc1` stands inactive: -4.6%. Take `COc1ccc(OC)c(CNC(=O)c2ccc3c(c2)c(C)c(C)n3Cc2ccc(Cl)cc2)c1`: the “activity change, negative = cytotoxicity” value was inactive: -7.05%. Under `Cc1ccc(C)c(CN2C(=O)C(O)(c3c(C)[nH]c4ccccc34)c3ccccc32)c1` (configuration not stated) stands inactive: -10.2%; under `CCOC(=O)c1noc2nc(C)n(CC(=O)NC(C)CC)c(=O)c12` (configuration not stated), inactive: -15.8%. Under `O=C(NCc1cccs1)c1ccc2c(c1)N(Cc1cccc(F)c1)C(=O)c1ccccc1S2` stands inactive: -0.375%; under `Cc1cc(C)cc(NC(=O)CSc2nc(=O)n(CCN3CCOCC3)c3c2CCC3)c1`, inactive: 9.62%; under `Cc1ccc(Cl)cc1NC(=O)CSc1nccn1C`, inactive: 0.329%. For `COC(=O)c1c(NC(=O)Cc2coc3cc(C)ccc23)sc2c1CCC2` the value was inactive: -3.25%. Consider `CCOc1ccc(NS(=O)(=O)c2ccc(C(=O)N(C)C)s2)cc1`, for which the “activity change, negative = cytotoxicity” value is inactive: -1.95%. Under `O=C(c1cccc(Cl)c1)N1c2nc(-c3ccco3)nn2C2(CCCCC2)[C@@H]2CCCC[C@@H]21` stands inactive: 3.68%; under `COc1ccc(CCNC(=O)CCCCn2c(=O)c3ccccc3n(CC(=O)Nc3c(C)cccc3C)c2=O)cc1OC`, inactive: 16.1%. With `C#CCn1c(=NC(=O)c2ccc3c(c2)OCCO3)sc2cc(OC)c(OC)cc21`, the “activity change, negative = cytotoxicity” value is inactive: 2.94%. Regarding `O=C(CCSCc1cccc(Cl)c1)N1CCN(c2ccc(Cl)cc2)CC1`, the “activity change, negative = cytotoxicity” value is inactive: 11.2%.

Regarding `Cc1ccccc1C(=O)N1CC(=O)Nc2ccc(Cl)cc2C1c1ccccc1` (configuration not stated), the “activity change, negative = cytotoxicity” value was inactive: 1.11%. Under `COC(=O)c1scc(-c2ccc(C)cc2)c1S(=O)(=O)N1CCN(c2ccccc2)CC1` stands inactive: 18.1%; under `COc1cccc(NC(=O)CC(=O)Nc2ccc3nc4n(c(=O)c3c2)CCCCC4)c1`, inactive: 6.4%; under `COc1cc(OC)cc(N2C(=O)N(Cc3ccc(C(C)(C)C)cc3)c3ccccc3S2(=O)=O)c1`, inactive: -0.808%. Under `COc1ccc(S(=O)(=O)N2CCC(C(=O)Nc3ccccc3)CC2)cc1OC` stands inactive: 1.07%. For `CCOC(=O)c1c(C)[nH]c(C)c1S(=O)(=O)NCC(=O)Nc1cccc(C#N)c1` the value was inactive: -6.72%; for `Cc1sc2ncn(CC(=O)Nc3ccc(C(C)C)cc3)c(=O)c2c1S(=O)(=O)N1CCN(c2ncccn2)CC1`, inactive: 17.6%. For the molecule `COc1ccc2c(c1)sc1ncc(C(=O)NCc3ccccc3F)c(=O)n12`, the “activity change, negative = cytotoxicity” value was inactive: 6.66%. Under `COc1ccc(S(=O)(=O)Nc2ccc3oc4c(c3c2)CCCC4)cc1` stands inactive: 0.969%; under `CC1(C)N=C(SCc2ccccc2Cl)c2ccccc2N1`, inactive: -18.4%.

With `Cc1ccc(S(=O)(=O)c2nnn3c2nc(NC(C)C)c2cc(Cl)ccc23)cc1C`, the “activity change, negative = cytotoxicity” value is inactive: 5.04%. Under `Cc1cccc(-c2noc(-c3cccnc3NCc3ccc(Cl)cc3)n2)c1` stands inactive: 6.92%; under `CCCCNC(=O)CSc1nc2n[nH]c(C)c2c(=N)n1-c1cccc(Cl)c1C`, inactive: -24.5%; under `COc1cccc(NC(=O)/C(C#N)=C/c2c(C)n(Cc3ccc(Cl)cc3)c3ccccc23)c1`, inactive: -9.74%.

As for `COc1ccc(CCn2c3c(c(=O)[nH]c2=O)C(NC(=O)c2ccc(C(C)(C)C)cc2)(C(F)(F)F)C(=O)N3)cc1OC` (configuration not stated), the “activity change, negative = cytotoxicity” value was inactive: 8.8%. For `CC(=O)c1cc(-c2ccc(F)cc2)n(CC(=O)Nc2cc(C)cc(C)c2)c1C` the value was inactive: 12%; for `COc1ccccc1Cc1nc2ccccc2nc1SCC(=O)N1CCN(c2ccccc2)CC1`, inactive: -3.12%; for `Cc1cc2nc(-c3ccc(NC(=O)c4cc5ccccc5o4)cc3)oc2cc1C`, inactive: -0.614%. Under `CCOc1ccc(Nc2nc3c(S(=O)(=O)c4ccc(C(C)C)cc4)nnn3c3ccsc23)cc1` stands inactive: 5.11%.

In the case of `O=C(NCc1ccco1)c1ccc2c(c1)N(Cc1ccc(Cl)cc1)C(=O)c1ccccc1S2`, the “activity change, negative = cytotoxicity” value was inactive: -17.2%. Under `COc1ccc(CCNC(=O)CCn2c(=O)c3ccccc3n(Cc3ccccc3)c2=O)cc1OC` stands inactive: 5.6%; under `CC(C)c1nn2c(=O)cc(COC(=O)c3ccccc3NC(=O)c3cccc(Cl)c3)nc2s1`, inactive: 19.5%; under `COc1cc(OC)c(NS(=O)(=O)c2c(C(=O)N3CCC(C)CC3)c(C)n(C)c2C)cc1Cl`, inactive: 5%. Under `Cc1nnc(NC(=O)CSCc2cc(=O)c3ccccc3[nH]2)s1` stands inactive: -16%. Under `COc1ccc(CCNC(=O)C(C)n2c(=O)cc(C(F)(F)F)c3c(C)nn(C)c32)cc1OC` (configuration not stated) stands inactive: 22.4%. In the case of `Cc1cc(C)cc(Oc2nc3c(C)cccn3c(=O)c2/C=C(\C#N)c2nc3ccccc3s2)c1`, the “activity change, negative = cytotoxicity” value is inactive: 3.99%. Under `COc1ccc(N2CCN(Cc3nnc(-c4cccc(Br)c4)o3)CC2)cc1` stands inactive: 1.24%; under `CCS(=O)(=O)N1CC(=O)N(c2ccc(Cl)cc2)C(C)(C(=O)NC2CCCCCC2)C1` (configuration not stated), inactive: 3.54%; under `Cc1nc2ccn(Cc3cccnc3)c(=O)c2cc1C(=O)N1CCN(c2ccc(F)cc2)CC1`, inactive: -4.94%.

The record behind these values is PubChem BioAssay AID1508642 (National Center for Advancing Translational Sciences (NCATS), 2021).
